In PubChem BioAssay (NCATS):
Inconclusive results, whose numbers are uncertain, are shown with a selection of clear calls. No potency is given beside an inconclusive call; the fits are too rough. Activity calls are given as the source filed them. The call rests on the fitted dose curve; in most records, active means well fitted inhibition curve with a large enough effect; inconclusive means small, poorly fitted or top-dose-only effect; inactive means flat fitted curve, though single readings scatter.

Assay: qHTS to identify inhibitors of the type 1 interferon - major histocompatibility complex class I in skeletal muscle: primary screen against the NCATS LOPAC collection (AID 1347405);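 further: lytic HiBiT luminescence reporting HLA-B protein level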
Settings: iHSKM muscle cells, IFN-b-induced MHC-I HiBiT luminescence, 24 h; series mostly up to 45.9 µM
Summary of the method: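 After 24 h at 37 C with compounds (7-point, 1:4.3 dilutions, 46 uM top final) plus 4 ng/ml IFN-beta, luminescence from lytic HiBiT detection was measured. HLA-B*08:01 in C25cl48 myoblasts carried an endogenous C-terminal HiBiT tag; medium lacked dexamethasone.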
Potency means the concentration at half of the fitted maximal effect; tags describe the fitted curve by direction and shape.

SMILES	Potency
CS(=O)(=O)Nc1ccc([N+](=O)[O-])cc1Oc1ccccc1	inconclusive [inhibitor, single point]
COc1cc2c(c(OC)c1OC)-c1ccc(OC)c(=O)cc1[C@@H](NC(C)=O)CC2	inconclusive [inhibitor, full curve]
COc1nc(C)nc(Cl)c1NC1=NCCN1	inactive
Clc1ccc2c(N3CCN(CCCN4CCN(c5ccnc6cc(Cl)ccc56)CC4)CC3)ccnc2c1	inactive
NC(=NCc1ccccc1)NC(=O)c1nc(Cl)c(N)nc1N	inconclusive [inhibitor, partial curve]
C=CCc1cccc(C=NNC(=O)CN2CCN(Cc3ccccc3)CC2)c1O	inconclusive [inhibitor, partial curve, poor fit]
Fc1ccc([C@@H]2CCNC[C@H]2COc2ccc3c(c2)OCO3)cc1	inconclusive [inhibitor, partial curve, poor fit]
CCCCS(=N)(=O)CCC(N)C(=O)O (stereo not given)	inactive
CCN(CC)CCOc1ccc(Nc2ncc3cc(-c4c(Cl)cccc4Cl)c(=O)n(C)c3n2)cc1	inconclusive [inhibitor, full curve, poor fit]
Cc1ccc(S(=O)(=O)N[C@@H](Cc2ccccc2)C(=O)CCl)cc1	inconclusive [inhibitor, partial curve, poor fit]
